Results as given in the supplement of paper PMC3334620.
Whole data set: some 33,000 sequences, median “E-score (-0.5 to 0.5)” near -0.016, cut for the highest 2% near 0.31. This is one part of the list.

molecular target: Cst6 (UniProt P40535); assay: PBM E-score (8-mer binding enrichment) (E-score (-0.5 to 0.5)); higher = stronger / more preferred TF binding; most listed sequences are background and not binding sites; conditions: protein concentration: 200 nM; construct: GST-DNA-binding domain
Outline: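 E-scores (a modified Wilcoxon-Mann-Whitney statistic) were assigned by the Universal PBM Analysis Suite to every ungapped eight-base word pooled with its reverse complement. The input came from universal all-10-mer Agilent arrays made double-stranded by primer extension and probed with GST-tagged yeast transcription factors at about 100-200 nM. Fluorescent anti-GST detected bound protein, and masliner normalised the scans.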

| Sequence | PBM E-score |
| --- | --- |
| AACTACGG | -0.11 |
| CCCCGTTA | -0.129 |
| AACGCTCT | -0.252 |
| AGGAGGTC | -0.241 |
| CAGCCCAG | -0.383 |
| CTTACAAG | 0.0591 |
| AAATTTGA | 0.185 |
| GCGATTCC | -0.238 |
| ACATACCT | 0.146 |
| GTACTGAC | 0.0925 |
| GAGACTAA | -0.0492 |
| CGGGCAGC | -0.178 |
| CACCCGCG | 0.2 |
| AGCCGTTA | 0.144 |
| GCGGGTCA | 0.00648 |
| CTAGTCAG | -0.184 |
| GCCGCGGA | 0.0146 |
| CGGATCCG | -0.109 |
| GGCCCTAA | -0.154 |
| TATAGGGA | -0.173 |
| CAGAGTCA | -0.0937 |
| TATTCCCA | -0.0457 |
| AGATGGTC | -0.26 |
| CCTAATCG | 0.0636 |

| Sequence | PBM E-score |
| --- | --- |
| CTTTTGAA | 0.175 |
| CTTGGAGA | -0.161 |
| CGCGAAAA | 0.137 |
| AGTTAAGC | 0.139 |
| ACTAACAC | 0.078 |
| AAGTCTCA | -0.228 |
| CTAATGAA | 0.11 |
| AAAGATAG | -0.026 |
| AACGCATC | -0.0267 |
| CTGATACC | -0.0973 |
| AGAAATCG | -0.0866 |
| GACTCATA | 0.0553 |
| CGGCGCTC | 0.13 |
| TCGCGTAA | 0.314 |
| AGTCTCGA | -0.146 |
| CTTCTCCC | -0.246 |
| GTCCAGCA | -0.336 |
| CGGTGCTC | -0.13 |
| ATAATACG | 0.225 |
| AACGGAAA | 0.142 |
| CAGGCCCG | -0.343 |
| CACTCACG | 0.00761 |
| ACATACTG | -0.0812 |
| AACCATTA | 0.221 |

| Sequence | PBM E-score |
| --- | --- |
| AGGAGCTC | -0.261 |
| CCGGTCTA | -0.207 |
| GAGGATGA | 0.144 |
| AGACCATC | -0.128 |
| CAGGTCTA | -0.158 |
| CACTCCTC | -0.0875 |
| CTACGACC | -0.234 |
| AGCTCCGG | -0.169 |
| GGCACAAA | 0.119 |
| GACAAAGA | 0.157 |
| CAGTGTAA | 0.107 |
| GGACCCAC | -0.0974 |
| CACGAGCG | -0.131 |
| CTGGTCAA | -0.0782 |
| CTAGACCA | -0.12 |
| CGGCCTGA | -0.22 |
| AAGCGGCC | -0.222 |
| ATTTAGAA | 0.15 |
| CCGTACCG | -0.0599 |
| ATATTATA | 0.219 |
| ATACACCG | -0.0621 |
| ACGGAAGA | 0.0815 |
| CAGCTTAC | 0.0119 |
| ATCGTACC | -0.0751 |

| Sequence | PBM E-score |
| --- | --- |
| AAGTCCAA | -0.0248 |
| CACGCAAA | 0.155 |
| AATTTCCA | 0.218 |
| GGTAGGCA | -0.184 |
| AAAGGTGC | -0.0338 |
| GGGACTAA | -0.189 |
| AGCTGCTC | -0.228 |
| CGAGTTGA | -0.00964 |
| GCACGGAA | 0.0438 |
| GCGCATCA | 0.0758 |
| AAAAGGGC | 0.0591 |
| AGGTAGAA | -0.0392 |
| TAAGACCA | -0.0159 |
| ACATACGG | 0.106 |
| GGTCTAAA | 0.00924 |
| CTCCACCA | -0.373 |
| ACTTTCTA | -0.0669 |
| GAAACAAC | -0.00995 |
| CGAGCTGC | -0.0922 |
| GGACCAGA | -0.193 |
| AACGACCA | 0.0758 |
| GGGGGCTA | -0.302 |
